US8828401B2, “Cytotoxic peptides and antibody drug conjugates thereof” (Pfizer Inc., priority 2011, dated 2014)

System: MDA-MB-468 breast xenografts
Assay: MDA-MB-468 breast xenografts with anti-Notch ADCs
Format: in vivo, female SCID Hairless Outbred (SHO) mice
Conditions: for tumor volume (mm^3 ± SEM): vc6780 study
Method: Humanized anti-Notch antibodies, hu28 and hu75, and rat-human chimeric anti-Notch antibodies, ch28 and ch75, were conjugated to various linker-payload combinations and tested in 37622A1 non-small cell lung cancer (NSCLC), HCC2429 lung cancer, MDA-MB-468 breast cancer and N87 gastric cancer xenograft models. For each model described below the first dose was given on Day 0. The tumors were measured at least once a week and their volume was calculated with the formula: tumor volume (mm^3)=0.5×(tumor width^2)(tumor length). The mean tumor volumes (±S.E.M.) for each treatment group were calculated having a maximum of 10 animals and a minimum of 6 animals to be included.
Similar in vivo experiments were performed with the MDA-MB-468 breast cancer cell line as described above. […] To generate xenografts, female SCID Hairless Outbred (SHO) mice were orthotopically implanted with 10×10^6 MDA-MB-468 cells containing 50% Matrigel (BD Biosciences) in the mammary fat pad. When the tumors reached a volume of 250 to 450 mm^3, the tumors were staged to ensure uniformity of the tumor mass among various treatment groups. The MDA-MB-468 breast model was dosed intraveneously Q4dx4 with PBS vehicle, humanized anti-Notch ADCs and control huNeg-8.8 ADCs at the doses provided in Tables 14 and 15.

B1: hu28-vc6780 (conjugate)
heavy: EVQLVESGGGLVQPGGSLRLSCAASGFTFRDYGMTWVRQAPGKGLEWVAYISSGSNYIYYAEAVKGRFTISRDNAKNSLYLQMNSLRAEDTAVYYCARRGPFVLDAWGQGTLVTVSS[human IgG1 constant region left out]
light: DIQMTQSPSSLSASVGDRVTITCKASQSINRYLHWYQQKPGKAPKLLIYNANGLQTGVPSRFSGSGSGTDFTLTISSLQPEDFATYYCLQHNTWPDTFGGGTKVEIKRTVAAPSVFIFPPSDEQLKSGTASVVCLLNNFYPREAKVQWKVDNALQSGNSQESVTEQDSKDSTYSLSSTLTLSKADYEKHKVYACEVTHQGLSSPVTKSFNRGEC
- effect on growth of MDA-MB-468 breast xenografts (in words) (humanized ADCs, Q4dx4, doses of Tables 14 and 15): inhibited growth of MDA-MB-468 breast xenografts in a dose-dependent manner
- tumor volume (mm^3 ± SEM) (Dose 1 mg/kg Q4dx4 iv, DAY 0): 342 ± 16 mm^3
- tumor volume (mm^3 ± SEM) (Dose 1 mg/kg Q4dx4 iv, DAY 4): 462 ± 22 mm^3
- tumor volume (mm^3 ± SEM) (Dose 1 mg/kg Q4dx4 iv, DAY 7): 452 ± 30 mm^3
- tumor volume (mm^3 ± SEM) (Dose 1 mg/kg Q4dx4 iv, DAY 11): 512 ± 35 mm^3
- tumor volume (mm^3 ± SEM) (Dose 1 mg/kg Q4dx4 iv, DAY 14): 507 ± 38 mm^3
- tumor volume (mm^3 ± SEM) (Dose 1 mg/kg Q4dx4 iv, DAY 19): 538 ± 47 mm^3
- tumor volume (mm^3 ± SEM) (Dose 1 mg/kg Q4dx4 iv, DAY 22): 551 ± 48 mm^3
- tumor volume (mm^3 ± SEM) (Dose 1 mg/kg Q4dx4 iv, DAY 25): 575 ± 55 mm^3
- tumor volume (mm^3 ± SEM) (Dose 1 mg/kg Q4dx4 iv, DAY 28): 654 ± 74 mm^3
- tumor volume (mm^3 ± SEM) (Dose 1 mg/kg Q4dx4 iv, DAY 32): 653 ± 82 mm^3
- tumor volume (mm^3 ± SEM) (Dose 1 mg/kg Q4dx4 iv, DAY 35): 734 ± 89 mm^3
- tumor volume (mm^3 ± SEM) (Dose 1 mg/kg Q4dx4 iv, DAY 40): 761 ± 99 mm^3
- tumor volume (mm^3 ± SEM) (Dose 1 mg/kg Q4dx4 iv, DAY 43): 816 ± 122 mm^3
- tumor volume (mm^3 ± SEM) (Dose 1 mg/kg Q4dx4 iv, DAY 46): 859 ± 126 mm^3
- tumor volume (mm^3 ± SEM) (Dose 1 mg/kg Q4dx4 iv, DAY 49): 948 ± 178 mm^3
- tumor volume (mm^3 ± SEM) (Dose 1 mg/kg Q4dx4 iv, DAY 53): 1008 ± 192 mm^3
- tumor volume (mm^3 ± SEM) (Dose 3 mg/kg Q4dx4 iv, DAY 0): 342 ± 18 mm^3
- tumor volume (mm^3 ± SEM) (Dose 3 mg/kg Q4dx4 iv, DAY 4): 394 ± 33 mm^3
- tumor volume (mm^3 ± SEM) (Dose 3 mg/kg Q4dx4 iv, DAY 7): 399 ± 24 mm^3
- tumor volume (mm^3 ± SEM) (Dose 3 mg/kg Q4dx4 iv, DAY 11): 380 ± 25 mm^3
- tumor volume (mm^3 ± SEM) (Dose 3 mg/kg Q4dx4 iv, DAY 14): 401 ± 30 mm^3
- tumor volume (mm^3 ± SEM) (Dose 3 mg/kg Q4dx4 iv, DAY 19): 438 ± 39 mm^3
- tumor volume (mm^3 ± SEM) (Dose 3 mg/kg Q4dx4 iv, DAY 22): 414 ± 41 mm^3
- tumor volume (mm^3 ± SEM) (Dose 3 mg/kg Q4dx4 iv, DAY 25): 491 ± 37 mm^3
- tumor volume (mm^3 ± SEM) (Dose 3 mg/kg Q4dx4 iv, DAY 28): 497 ± 68 mm^3
- tumor volume (mm^3 ± SEM) (Dose 3 mg/kg Q4dx4 iv, DAY 32): 524 ± 69 mm^3
- tumor volume (mm^3 ± SEM) (Dose 10 mg/kg Q4dx4 iv, DAY 0): 335 ± 9 mm^3
- tumor volume (mm^3 ± SEM) (Dose 10 mg/kg Q4dx4 iv, DAY 4): 395 ± 19 mm^3
- tumor volume (mm^3 ± SEM) (Dose 10 mg/kg Q4dx4 iv, DAY 7): 350 ± 19 mm^3
- tumor volume (mm^3 ± SEM) (Dose 10 mg/kg Q4dx4 iv, DAY 11): 248 ± 26 mm^3
- tumor volume (mm^3 ± SEM) (Dose 10 mg/kg Q4dx4 iv, DAY 14): 154 ± 23 mm^3
- tumor volume (mm^3 ± SEM) (Dose 10 mg/kg Q4dx4 iv, DAY 19): 65 ± 17 mm^3
- tumor volume (mm^3 ± SEM) (Dose 10 mg/kg Q4dx4 iv, DAY 22): 25 ± 16 mm^3
- tumor volume (mm^3 ± SEM) (Dose 10 mg/kg Q4dx4 iv, DAY 25): 26 ± 19 mm^3
- tumor volume (mm^3 ± SEM) (Dose 10 mg/kg Q4dx4 iv, DAY 28): 15 ± 15 mm^3
- tumor volume (mm^3 ± SEM) (Dose 10 mg/kg Q4dx4 iv, DAY 32): 0 ± 0 mm^3
- tumor volume (mm^3 ± SEM) (Dose 10 mg/kg Q4dx4 iv, DAY 35): 0 ± 0 mm^3
- tumor volume (mm^3 ± SEM) (Dose 10 mg/kg Q4dx4 iv, DAY 40): 0 ± 0 mm^3
- tumor volume (mm^3 ± SEM) (Dose 10 mg/kg Q4dx4 iv, DAY 43): 0 ± 0 mm^3
